Experimental data taken from ChEMBL document CHEMBL5606460, “ASAP - DENV-2 NS2B-NS3 protease fluorescence single point” (2024).
Among all 2,000 compounds or so, about 110 (5.5%) showed an effect of 50% or more. The list shows a part of the results.

Target: Genome polyprotein (dengue virus type 2) (UniProt P29990)
[1] = Thailand/16681/1984, Concentration 25.0 uM, Number of replicates 1.0

Nc1ccc(C(=O)Nc2nc3ccccc3s2)cn1
inhibition (Thailand/16681/1984, Concentration 49.5 uM, Number of replicates 2.0, Standard deviation 0.2132030363528443 %): 4.25% | inhibition (Thailand/16681/1984, Concentration 99.01 uM, Number of replicates 2.0, Standard deviation 0.08901228959367372 %): 2.13% | inhibition (Thailand/16681/1984, Concentration 198.0 uM, Number of replicates 2.0, Standard deviation 0.004796985710115915 %): 5.49%

O=Cc1ccc(N2CCC(C(=O)NCc3cncc(Br)c3)CC2)cc1
inhibition [1]: 12.8%

Cc1cc(CO)c2cccc(CC(=O)NC[C@H](C)O)c2n1
inhibition (Thailand/16681/1984, Concentration 99.9 uM, Number of replicates 2.0, Standard deviation 0.37872079112567497 %): -9.3%

NCc1cccc(NC(=O)[C@@H](NC(=O)OCc2ccccc2)c2ccc(F)cc2)c1
inhibition (Thailand/16681/1984, Concentration 49.5 uM, Number of replicates 2.0, Standard deviation 2.4011437232418986 %): -4.62% | inhibition (Thailand/16681/1984, Concentration 99.01 uM, Number of replicates 2.0, Standard deviation 1.9050608177527883 %): -3.96% | inhibition (Thailand/16681/1984, Concentration 198.0 uM, Number of replicates 2.0, Standard deviation 2.2061626239616485 %): -3.52%

COCCCN(Cc1ccccc1)C(=O)C1CCN(c2ccc(C=O)cc2)CC1
inhibition [1]: 16.7%

CCN(CC)C(=O)C1CCN(C(=O)C2CCN(c3ccc(C=O)cc3)CC2)CC1
inhibition [1]: 11.7%

Cc1nn(CCc2cc(F)cc(F)c2)cc1C1CCNCC1
inhibition (Thailand/16681/1984, Concentration 49.5 uM, Number of replicates 2.0, Standard deviation 1.1346393127123868 %): -1.21% | inhibition (Thailand/16681/1984, Concentration 99.01 uM, Number of replicates 2.0, Standard deviation 1.9848261941502932 %): -1.9% | inhibition (Thailand/16681/1984, Concentration 198.0 uM, Number of replicates 2.0, Standard deviation 2.5836257952746067 %): -1.09%

CCOc1ccc(CCNC(=O)C2CCN(c3ccc(C=O)cc3)CC2)cc1
inhibition [1]: 12.1%

CNC(=O)c1ccc2n1CCN(S(=O)(=O)CCn1cnc3ccccc31)[C@@H]2C
inhibition (Thailand/16681/1984, Concentration 49.5 uM, Number of replicates 2.0, Standard deviation 0.8922565379957527 %): -2.4% | inhibition (Thailand/16681/1984, Concentration 99.01 uM, Number of replicates 2.0, Standard deviation 0.9153368265898945 %): -2.77% | inhibition (Thailand/16681/1984, Concentration 198.0 uM, Number of replicates 2.0, Standard deviation 0.6530625516906042 %): -3.58%

CNC(=O)c1cc(Cl)ccc1NC(=O)CNc1ccc(S(N)(=O)=O)cc1F
inhibition (Thailand/16681/1984, Concentration 49.5 uM, Number of replicates 2.0, Standard deviation 0.21195144353946477 %): -7.68% | inhibition (Thailand/16681/1984, Concentration 99.01 uM, Number of replicates 2.0, Standard deviation 1.473382848647963 %): -4.07% | inhibition (Thailand/16681/1984, Concentration 198.0 uM, Number of replicates 2.0, Standard deviation 1.1692781637763987 %): -4.73%

CC(C)(C)OC(=O)N[C@H](C(=O)Nc1cccc(CN)c1)c1ccc(OCc2ccccc2)cc1
inhibition (Thailand/16681/1984, Concentration 49.5 uM, Number of replicates 2.0, Standard deviation 1.7551947166429631 %): -1.9% | inhibition (Thailand/16681/1984, Concentration 99.01 uM, Number of replicates 2.0, Standard deviation 0.05489981052071439 %): 3.23% | inhibition (Thailand/16681/1984, Concentration 198.0 uM, Number of replicates 2.0, Standard deviation 0.6374768156986698 %): 15%

O=Cc1ccc(N2CCC(C(=O)NCC(=O)NCc3ccccc3)CC2)cc1
inhibition [1]: 14%

COc1ccc(C(=O)C2CCN(C(=O)C3CCN(c4ccc(C=O)cc4)CC3)CC2)cc1
inhibition [1]: 10.3%

O=Cc1ccc(N2CCC(C(=O)NCc3ccc(-c4ccccn4)cc3)CC2)cc1
inhibition [1]: 6.55%

O=C(NCc1nnc[nH]1)c1ccn([C@H]2CCCNC2)n1
inhibition (Thailand/16681/1984, Concentration 49.5 uM, Number of replicates 2.0, Standard deviation 0.8091731298758035 %): -2.94% | inhibition (Thailand/16681/1984, Concentration 99.01 uM, Number of replicates 2.0, Standard deviation 7.216634091490219 %): 1.81% | inhibition (Thailand/16681/1984, Concentration 198.0 uM, Number of replicates 2.0, Standard deviation 0.9732760992378204 %): -4.06%

N#Cc1cccc(-c2nc3c(C(=O)Nc4ccccc4)cc(Cl)cc3[nH]2)c1
inhibition (Thailand/16681/1984, Concentration 99.5 uM, Number of replicates 2.0, Standard deviation 7.963520922762683 %): 14.4% | inhibition (Thailand/16681/1984, Concentration 295.6 uM, Number of replicates 2.0, Standard deviation 58.7613445679075 %): 56.6%

CNC(=O)c1cc(Cl)ccc1NS(=O)(=O)c1ccc(OC2CCCC2)nc1
inhibition (Thailand/16681/1984, Concentration 49.5 uM, Number of replicates 2.0, Standard deviation 1.7218457698776273 %): 4.61% | inhibition (Thailand/16681/1984, Concentration 99.01 uM, Number of replicates 2.0, Standard deviation 2.770217269330824 %): 9.09% | inhibition (Thailand/16681/1984, Concentration 198.0 uM, Number of replicates 2.0, Standard deviation 2.636140389197544 %): 19.8%

O=C(c1cc[nH]c(=O)c1)N1CCc2c(-c3nn[nH]n3)cccc21
inhibition (Thailand/16681/1984, Concentration 49.5 uM, Number of replicates 2.0, Standard deviation 1.1797090662409355 %): 0.403% | inhibition (Thailand/16681/1984, Concentration 99.01 uM, Number of replicates 2.0, Standard deviation 2.199955320406661 %): 2.52% | inhibition (Thailand/16681/1984, Concentration 198.0 uM, Number of replicates 2.0, Standard deviation 2.365187741015073 %): 6.37%

CCn1ncc(-c2ccccc2C(=O)Nc2cnn(C)c2)c1F
inhibition (Thailand/16681/1984, Concentration 49.5 uM, Number of replicates 2.0, Standard deviation 1.7362397615810676 %): -3.37% | inhibition (Thailand/16681/1984, Concentration 99.01 uM, Number of replicates 2.0, Standard deviation 3.5632406540879202 %): -3.71% | inhibition (Thailand/16681/1984, Concentration 198.0 uM, Number of replicates 2.0, Standard deviation 2.004108271976906 %): -1.89%

CC(C)N(CCN1CCCCCC1)C(=O)C1CCN(c2ccc(C=O)cc2)CC1
inhibition [1]: 8.55%

Cc1ccc(Cl)cc1N1CCN(C(=O)C2CCN(c3ccc(C=O)cc3)CC2)CC1
inhibition [1]: 7.08%

c1ccc2c([C@H]3CCN(Cc4cccn5nccc45)C3)c[nH]c2c1
inhibition (Thailand/16681/1984, Concentration 50.0 uM, Number of replicates 2.0, Standard deviation 0.44384694438167865 %): 2.85% | inhibition (Thailand/16681/1984, Concentration 100.0 uM, Number of replicates 2.0, Standard deviation 0.10784569314446374 %): 6.29% | inhibition (Thailand/16681/1984, Concentration 200.0 uM, Number of replicates 2.0, Standard deviation 0.2525425675781247 %): 8.99%
